According to PubChem BioAssay AID1508623 (National Center for Advancing Translational Sciences (NCATS), 2021):
Hit rate of the full screen: of about 48,000 compounds, about 450 (0.94%) were called active. Roughly 19% stayed inconclusive and do not appear here. The call rests on the fitted dose curve; in most records, active means well fitted inhibition curve with a large enough effect; inconclusive means small, poorly fitted or top-dose-only effect; inactive means no such curve, though single readings can be large or run the other way. This is one part of the list.

Assay: Primary qHTS for Identification of Small Molecule Inhibitors of Huntingtin Promoter Activity; further: nearly all actives have a fitted effect of over 50% in size
Settings: HEK293 HTT promoter firefly luciferase reporter (activity 0% = vehicle and -100% = no light), 24 h; series mostly up to 57.5 µM; activity change, negative = inhibition: at the top concentration
In short: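 HEK293 luciferase promoter-reporter cells (2,500/well) plated 24 h, then compounds added at up to 57.5 uM final for 24 h at 37 °C. Firefly luminescence by Dual-Glo, normalized to vehicle (0%) and zero RLU (-100%).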

Structure (SMILES) | activity change, negative = inhibition
COc1ccc(CNC(=O)c2c3c(nc4ccccc24)C(=O)N(C2CCCCC2)C3)c(OC)c1 | inactive: -11%
O=C(Cn1cc(S(=O)(=O)Cc2cccc(Cl)c2)c2ccccc21)NCCc1ccccc1 | inactive: -1.09%
Cc1ccc(NC(=O)/C(C#N)=C/c2ccc(C(C)C)cc2)cc1C | inactive: -13.2%
CC(=O)Nc1nonc1-c1nnc(SCC(=O)N(C)c2ccccc2)n1C | inactive: -28.8%
COc1ccc(CNC(=O)C(=O)Nc2ccc(OC)cc2OC)cc1 | inactive: -14.6% [at 11.5 µM]
Cc1nnc(C(C)C)n1C1C[C@H]2CC[C@@H](C1)N2CC[C@H](NC(=O)C1CCC(F)(F)CC1)c1ccccc1 (stereo not given in full) | inactive: -1.31%
CCOC(=O)c1cnc2c(C)c(Cl)ccc2c1NCCc1ccccc1 | inactive: -13.6%
CCOc1cccc(NC(=O)CSc2ncc(-c3ccccc3)[nH]2)c1 | inactive: 20.8%
CCCn1cc(S(=O)(=O)c2ccc(CC)cc2)c(=O)c2cc(F)c(N(CC)CC)cc21 | inactive: -2.89%
CCOc1ccc(CNC(=O)c2cc(=O)[nH]c3ccc(S(=O)(=O)N4CCCC4)cc23)cc1 | inactive: -2.72%
COc1ccc(Cl)cc1CNCCSc1nnnn1C | inactive: 0.769%
CC(=O)c1ccc(N2CCN(C(=O)CCCCn3c(=O)[nH]c4ccccc4c3=O)CC2)cc1 | inactive: -16.5%
Cc1ccc(NC(=O)CCC(=O)N2Cc3ccccc3Oc3ncccc32)cc1F | inactive: -14%
Cc1cccc(Cn2c(=O)n(CCC(=O)NCCc3ccc(Cl)cc3)c(=O)c3sccc32)c1 | inactive: -25.7%
Cc1cc(-c2ccc(C)c(S(=O)(=O)NCC3CCN(Cc4ccc(F)cc4)CC3)c2)on1 | inactive: -26%
O=C(O)c1c(CNCc2cccc(F)c2)c2ccccc2n1Cc1ccccc1 | inactive: -27.4%
O=C(NCC(c1ccc2c(c1)OCO2)N1CCOCC1)C(=O)Nc1cccc(Cl)c1 (stereo not given) | inactive: -26.2%
COc1ccc(OC)c(CNC(=O)c2nn(C)c3c2CSc2ccccc2-3)c1 | inactive: -25.6%
CC(=O)c1ccc(NC(=O)c2cc(S(=O)(=O)N3CCCCCC3)cn2C)cc1 | inactive: -8.24%
Cc1ccc(NC(=O)CCCc2nnc3n(C)c(=O)c4sccc4n23)cc1F | inactive: -6.12%
COc1ccc(-c2nc3c(c(SCC(=O)Nc4ccccc4F)n2)Cc2cc(C)ccc2O3)cc1 | inactive: -2.64%
CC(O)Cn1cnc2c1c(=O)n(C)c(=O)n2C (stereo not given) | inactive: -6.83%
NC(=O)C1(N2CCCCC2)CCN(C(=O)Nc2ccc(F)cc2)CC1 | inactive: 15.2%
CCc1ccccc1NC(=O)CN1C(=O)c2ccccc2Sc2ncccc21 | inactive: -24.9%
CCCNC(=O)c1ccc2c(c1)sc1nc(-c3ccc(C)cc3)cn12 | inactive: 4.11%

Structure (SMILES) | activity change, negative = inhibition
O=C(CNC(=O)c1ccccc1)OCc1cc(=O)n2ccsc2n1 | inactive: -9.48%
CC1CCn2c(nc3cc(C(=O)NCc4ccccc4)ccc32)C1 (stereo not given) | inactive: 37.6%
Cc1ccc(C)c(N2CCN(C(=O)C3CCCN(Cc4nc(-c5cccc(Cl)c5)oc4C)C3)CC2)c1 (stereo not given) | inactive: -5.15%
Cc1cc(C)cc(-n2ccn(CC(=O)Nc3cc(C)ccc3C)c(=O)c2=O)c1 | inactive: -13.1%
Cc1cccc(CS(=O)(=O)Cc2ccc(C(=O)NCCc3ccccc3)o2)c1 | inactive: -11.8%
Cc1ccc(-c2cn(-c3cccc(Cl)c3)c(S(=O)(=O)CC(=O)Nc3cccc(C)c3)n2)cc1 | inactive: -22.2%
CCOC(=O)c1c(S(=O)(=O)N2CCCC(C(=O)NCc3cccc(OC)c3)C2)c(C)n(C)c1C (stereo not given) | inactive: -8.35%
CCOc1ccc(N2CC(c3nc4ccccc4n3Cc3ccccc3F)CC2=O)cc1 (stereo not given) | inactive: -35.4%
COc1cccc(OC)c1C(=O)Nc1cccc(-c2cn3ccsc3n2)c1 | inactive: 0.187%
CCOC(=O)c1scc(-c2ccc(C)cc2)c1S(=O)(=O)N1CCN(c2ccccc2F)CC1 | inactive: -28.4%
Cc1ccc(NC(=O)NCc2cccn2Cc2ccccc2)c(C)c1 | inactive: 7.92%
CCCCCSc1ncnc2c1sc1nc(N3CCOCC3)c3c(c12)CCCC3 | inactive: 9.66%
CCC(C)NC(=O)Cn1c(=O)n(-c2ccc(C)c(C)c2)c(=O)c2c3c(sc21)CCCCC3 (stereo not given) | inactive: -11%
CCOc1ccc(OCC)c(NC(=O)c2ccc(-c3ccccc3)s2)c1 | inactive: 6.49%
O=C(OOC(=O)c1ccccc1)c1ccccc1 | inactive: -1.93%
CCCCc1nn2c(=O)cc(COC(=O)C3CCCCC3)nc2s1 | inactive: -6.55%
Cc1nc2nc(SCC(=O)NC3CCC(C)CC3)nn2c(C)c1Cc1ccccc1 (stereo not given) | inactive: -16.6%
COC(=O)c1ccc(-c2nc3cc(NC(C)=O)ccc3o2)cc1 | inactive: 14%
Nc1cc(=O)[nH]c(N)n1 | inactive: -2%
COc1ccc(-n2c(=O)c3ccccc3n(Cc3cccc(C)c3)c2=O)cc1 | inactive: -17.3%
COc1cccc(Cn2c(CNS(=O)(=O)c3ccc(C(C)(C)C)cc3)nc3cccnc32)c1 | inactive: -13%
NC(=O)CCCCC1CCSS1 (stereo not given) | inactive: 10.5%
O=C(Nc1nnc(S(=O)(=O)Nc2ccccc2)s1)C1CCCCC1 | inactive: -27.6%
CCCSc1nnc2[nH]c(=O)cc(C)n12 | inactive: -2.85%
CCOC(=O)Cn1c(=O)n(CC2CCCO2)c2nc(-c3ccc(C(C)C)cc3)nc(C(N)=O)c21 (stereo not given) | inactive: -8.98%
